# Measurements: patent US20260035452A1 (THE UNIVERSITY OF BIRMINGHAM, priority 2022, published 2026)
# T1: IL-17F (Mus musculus, UniProt Q7TNI7)
# T1 construct: purchased R&D System 2057-IL
# T1 sequence (Q7TNI7 29-161): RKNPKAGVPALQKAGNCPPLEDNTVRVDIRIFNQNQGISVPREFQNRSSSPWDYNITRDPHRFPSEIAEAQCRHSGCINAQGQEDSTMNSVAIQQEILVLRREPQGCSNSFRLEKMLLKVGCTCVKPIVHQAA
# T2: IL-17A/F heterodimer (Mus musculus, UniProt Q62386+Q7TNI7)
# T2 sequence (Q62386 26-158): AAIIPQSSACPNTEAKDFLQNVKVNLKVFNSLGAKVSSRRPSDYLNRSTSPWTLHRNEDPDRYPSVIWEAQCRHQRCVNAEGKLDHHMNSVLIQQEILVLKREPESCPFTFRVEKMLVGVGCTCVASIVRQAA
# T2 sequence (Q7TNI7 29-161): T1 sequence (Q7TNI7 29-161)
# T3: IL-17A (Mus musculus, UniProt Q62386)
# T3 construct: purchased R&D System
# T3 sequence (Q62386 26-158): T2 sequence (Q62386 26-158)
# B1: Ab17-IPL-1: monoclonal anti-interleukin-17A neutralizing antibody, heavy chain SEQ ID NO: 3, light chain SEQ ID NO: 5 (antibody)
# heavy: EVILVESGGGLVKPGGSLKLSCAASGFTFSSYAMSWVRQTPEKRLEWVATITGGGTYIYYPDSVKGRFTISRDNAKNTLYLQMSSLRSEDTAMYFCARIYGRNYYFDYWGQGTTLTVSSAKTTPPSVYPLAPGSAAQTNSMVTLGCLVKGYFPEPVTVTWNSGSLSSGVHTFPAVLQSDLYTLSSSVTVPSSTWPSETVTCNVAHPASSTKVDKKIVPRDCGCKPCICTVPEVSSVFIFPPKPKDVLTITLTPKVTCVVVDISKDDPEVQFSWFVDDVEVHTAQTQPREEQFNSTFRSVSELPIMHQDWLNGKEFKCRVNSAAFPAPIEKTISKTKGRPKAPQVYTIPPPKEQMAKDKVSLTCMITDFFPEDITVEWQWNGQPAENYKNTQPIMDTDGSYFVYSKLNVQKSNWEAGNTFTCSVLHEGLHNHHTEKSLSHSPGK
# light: QIVLTQSPAIMSASLGEEITLTCSANSSVTYMHWYQQKSGTSPKLLIYSTSNLASGVPSRFSGSGSGTFYSLTISSVEAEDAADYYCHQWSSYRTFGGGTKLEIQRADAAPTVSIFPPSSEQLTSGGASVVCFLNNFYPKDINVKWKIDGSERQNGVLNSWTDQDSKDSTYSMSSTLTLTKDEYERHNSYTCEATHKTSTSPIVKSFNRNEC
# Tests used:
# [1] = In vivo immunogenicity assay (total IgG, IgG1); set-up: species or system CD-1 mice; details: 100 μg i.p., 2 h to 21 days, compared to reference and gold standard antibodies
# Procedure: (§1) To assess the neutralising activity of Ab-IPL-IL-17™, CD-1 mice were injected i.p. with 100 μg/mouse of Ab-IPL-IL-17™, MAB421 or secukinumab as positive controls. After 30 min, an i.p. injection of 10 μg/mouse of IL-17A, IL-17F or IL-17A/F heterodimer was administered. After 2 h blood was collected by intracardiac puncture and serum levels of (A) IL-17A, (B) IL-17F or (C) IL-17A/F heterodimer were quantified by Elisa. (C-F) For the evaluation of immunogenic effects CD-1 mice were injected i.p. with 100 μg of IgG1 isotype antibody (vehicle) or IL-17 neutralising antibodies (bimekizumab, secukinumab, MAB421 or Ab-IPL-IL-17™). In the selected time-point (2 h, 24 h, 72 h, 7 days, 14 days and 21 days) total IgG, IgG1, lymphocytes and platelets levels were determined by Elisa and haematological blood count test, respectively. Data are presented as mean±S.D. for n=5 mice per group. […]
# (§2) For the neutralisation assay, CD-1 mice (n=5 per group) were injected i.p. with 100 μg of IL-17 neutralising antibodies (bimekizumab, secukinumab, MAB317 or Ab-IPL-IL-17™) 30 min prior to an i.p. injection of 10 μg IL-17A or IL-17F (2057-IL, R&D System). 2 h after IL-17s administration, IL-17A and IL-17F levels were determined by Elisa. […] In a selected time-point of 2 h, 24 h, 72 h, 7 days, 14 days and 21 days total IgG and IgG1 levels were determined by Elisa. […]
# IL-17F = molecular target: T1, IL-17F; test: In vivo neutralisation assay, IL-17F; details: CD-1 mice, 100 μg antibody i.p. 30 min before 10 μg IL-17F i.p., 2 h
# Procedure: as §1, §2
# Monoarthritic mice (AIA) = test: AIA model (monoarthritis); assay type: in vivo, C57Bl/6J mice; details: 50 μg i.p. at 24 h or 72 h post disease onset, vs infliximab
# Procedure: Monoarthritic mice (AIA group) were therapeutically administered Ab-IPL-IL-17™ or infliximab (anti-TNF-α) on day 1 and 3. Joint inflammation was scored daily and expressed as (A) percentage of baseline joint thickness or (B) AUC. (A-B) Data are presented as mean±S.D. for n=6 mice per group. Statistical analysis was conducted by one or two-way ANOVA followed by Dunnett post-test. *P≤0.05, **p≤0.01 vs AIA group. (C) Human whole blood from IBD patients was treated with or without Ab-IPL-IL-17™ (10 μg/ml) for 4 h, after which serum IL-17 levels were assessed by Elisa assay. Data are median±interquartile ranges (min 25%, max 75%) for n=6 independent donors. Statistical analysis was conducted by one-way ANOVA followed by Bonferroni's for multiple comparisons. ^#P≤0.05 vs vehicle group.
# Animal studies were regulated by the Animals (Scientific Procedures) Act 1986 of the United Kingdom and performed under appropriate Personal Project License. Approval was granted by the University of Birmingham's Animal Welfare and Ethical Review Body and all ethical guidelines were adhered to whilst carrying out this study. […] Joint thickness (mm) was measured by callipers daily for up to 7 days. Data are expressed as a percentage change from baseline measurement taken on day 21 or area under the curve (AUC).
# IL-17A/F heterodimer = molecular target: T2, IL-17A/F heterodimer; test: In vivo neutralisation assay, IL-17A/F heterodimer; details: CD-1 mice, 100 μg antibody i.p. 30 min before 10 μg IL-17A/F i.p., 2 h
# Procedure: as §1, §2
# [2] = test system: Human fibroblasts from Resolving patients; test: IL-6 release by human fibroblasts from Resolving arthritis patients (Elisa); assay type: cell-based; details: Res conditions, IL-17 + TNF-α, antibody 10 μg/ml
# Procedure: (§3) Data were expressed as pg/ml and presented as means±S.D. of three separate independent experiments. Statistical analysis was conducted using analysis of variance with Bonferroni post-test for multiple comparisons. ^###P≤50.001 vs own Ctrl group; **P≤0.01 vs RA IL-17 group; ^+P≤0.05 vs Res IL-17 group.
# (§4) Isolation of human fibroblasts: Synovial tissue samples were obtained by ultrasound-guided biopsy from treatment-naive patients with a new onset of clinically apparent arthritis and a symptom duration of ≤12 weeks, who at follow-up had either a resolving arthritis (Res). […] Supernatants were collected and measured to evaluate IL-6 levels.
# (§5) Elisa assay: The levels of IL-6 were measured using commercially available enzyme-linked immunosorbent assay kits (ELISA kit, R&D System, Milan, Italy) according to the manufacturer instructions. […] The addition of 100 μl of the substrate and stop solution represented the last steps before the reading of absorbance (measured at 450 nm) on a microplate reader. Antigen levels in the samples were determined using a standard curve expressed as pg/ml.
# IL-17A = molecular target: T3, IL-17A; test: In vivo neutralisation assay, IL-17A; details: CD-1 mice, 100 μg antibody i.p. 30 min before 10 μg IL-17A i.p., 2 h
# Procedure: as §1, §2
# [3] = test system: Human fibroblasts from RA patients; test: IL-6 release by human fibroblasts from RA patients (Elisa); assay type: cell-based; details: IL-17 (10 ng/ml) + TNF-α (100 U/ml), antibody 10 μg/ml 30 minutes before, 24 h
# Procedure: as §3, §4, §5
molecule,measurement,setting,value
B1,immunogenicity,[1],minor immunogenicity
same,neutralisation of IL-17F (serum level),IL-17F,able to neutralize
same,onset and progression of mouse pathology (joint thickness),Monoarthritic mice (AIA),able to ameliorate onset and progression of mouse pathology in a more extensive manner compared to gold standard antibody
same,neutralisation of IL-17A/F heterodimer (serum level),IL-17A/F heterodimer,able to neutralize
same,effect of antibody on IL-6 production,[2],No significant effects
same,neutralisation of IL-17A (serum level),IL-17A,able to neutralize
same,IL-6 production in the presence of antibody,[3],2383.61 µg/mL
